Results from article PMC4336329 (PLoS ONE, 2015).
Out of some 310,000 compounds screened, about 14,000 (4.5%) showed an effect of 50% or more. The effect is printed as a negative number. The list shows a part of the results.

Target: human ether-à-go-go-related gene (hERG) potassium channel (human, UniProt Q12809)
Test: primary screen, population patch clamp on CHO cells stably expressing hERG
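Also: peak tail current of the secondary pulse compared with the same well before compound.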

Sequence of human ether-à-go-go-related gene (hERG) potassium channel (Q12809 whole entry, looked up): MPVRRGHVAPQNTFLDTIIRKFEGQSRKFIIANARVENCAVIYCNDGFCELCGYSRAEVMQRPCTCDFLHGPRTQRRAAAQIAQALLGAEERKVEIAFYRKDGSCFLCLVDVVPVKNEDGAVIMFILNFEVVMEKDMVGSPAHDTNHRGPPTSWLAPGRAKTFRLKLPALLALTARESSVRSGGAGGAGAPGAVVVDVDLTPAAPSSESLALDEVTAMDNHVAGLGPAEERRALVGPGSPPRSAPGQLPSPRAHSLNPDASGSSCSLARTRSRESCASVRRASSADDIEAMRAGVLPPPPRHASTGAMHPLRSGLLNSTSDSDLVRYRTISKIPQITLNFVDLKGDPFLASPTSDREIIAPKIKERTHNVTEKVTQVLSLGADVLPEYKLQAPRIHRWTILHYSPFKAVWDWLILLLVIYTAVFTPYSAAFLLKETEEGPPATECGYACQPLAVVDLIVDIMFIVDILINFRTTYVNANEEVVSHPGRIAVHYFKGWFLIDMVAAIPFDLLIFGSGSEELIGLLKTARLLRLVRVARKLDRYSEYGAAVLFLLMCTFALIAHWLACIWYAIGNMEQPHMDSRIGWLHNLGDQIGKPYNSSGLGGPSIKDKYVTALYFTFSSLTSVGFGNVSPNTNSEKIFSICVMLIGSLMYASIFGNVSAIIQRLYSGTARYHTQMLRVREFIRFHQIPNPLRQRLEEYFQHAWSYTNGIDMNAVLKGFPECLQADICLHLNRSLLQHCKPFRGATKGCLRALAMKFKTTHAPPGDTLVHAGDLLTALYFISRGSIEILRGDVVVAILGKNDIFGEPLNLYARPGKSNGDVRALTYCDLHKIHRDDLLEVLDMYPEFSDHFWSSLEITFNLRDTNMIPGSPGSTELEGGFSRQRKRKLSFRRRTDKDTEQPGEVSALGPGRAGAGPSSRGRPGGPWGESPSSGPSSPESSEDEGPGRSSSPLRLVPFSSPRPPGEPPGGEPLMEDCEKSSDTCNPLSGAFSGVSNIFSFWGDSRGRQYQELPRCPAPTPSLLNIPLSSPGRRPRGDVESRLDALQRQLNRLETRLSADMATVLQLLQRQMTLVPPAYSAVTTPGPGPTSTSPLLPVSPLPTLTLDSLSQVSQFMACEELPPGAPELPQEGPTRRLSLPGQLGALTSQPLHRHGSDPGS

Row | SMILES | hERG current change (%, negative = inhibition) at 10uM
1 | CCCCn1c(N)c(N(CCOC)C(=O)c2ccc(F)c(S(=O)(=O)N3CCOCC3)c2)c(=O)[nH]c1=O | 3.51%
2 | CC(NC(=O)C1CCCN(S(=O)(=O)c2cccc3nonc23)C1)c1ccccc1 (centres unmarked) | -29.9%
3 | COCCCN(C(=S)NC(=O)c1ccc(Br)cc1)c1c(N)n(Cc2ccccc2)c(=O)[nH]c1=O | 13.2%
4 | CCOC(=O)c1ccc(NCc2nc3ccccc3n2C)cc1 | -30.5%
5 | C=CCn1c(SCC(=O)c2ccc(OC)cc2)nnc1C(C)NC(=O)c1cccs1 (centres unmarked) | -27.6%
6 | CCCCN(C)CCNC(=O)C(=O)c1c(C)[nH]c2ccccc12 | -16.9%
7 | Fc1ccc(NC(=S)NCc2ccccn2)cc1 | 16.1%
8 | O=C(CCNC(=O)Cn1ccc2ccccc2c1=O)NCCN1CCN(c2ccccc2F)CC1 | 6.8%
9 | Cc1ccc(C2NC(=NCc3ccccc3)Nc3nc(C)cc(=O)n32)cc1 (centres unmarked) | 6.16%
10 | CC(NC(=O)COC(=O)C1CCC1)c1ccccc1 (centres unmarked) | 0.753%
11 | COc1ccc(Nc2nc(OC)nc(N3CCOCC3)n2)cc1 | -21.1%
12 | CNC(=O)c1c(C)[nH]c(=S)c(C#N)c1-c1ccco1 | 11.4%
13 | Cc1c2cnn(CC(=O)NCc3ccccn3)c(=O)c2c(C)n1Cc1ccccc1 | -8.42%
14 | CCOC(=O)CNC(=O)C1(c2ccccc2)CCCC1 | 8.68%
15 | COc1cc(Br)cc(/C=N/NC(=O)Cc2ccccc2)c1O | 9.76%
16 | O=C(CO/N=C/c1ccc(Cl)cc1Cl)NNC(=O)c1cccc(Cl)c1 | 18.2%
17 | O=[N+]([O-])c1ccc(/C=N/n2cnc3ccccc32)s1 | -14.2%
18 | CC(=O)N1CCN2C(=O)C1CCCC(=O)c1cc(C3CCCCC3)ccc12 (centres unmarked) | -36.4%
19 | CC(=O)N1N=C(N)SC12CCCC2 | 22%

Row | SMILES | hERG current change (%, negative = inhibition) at 10uM
20 | CC1CN(Cc2cc(=O)n3ccsc3n2)CC(C)O1 (centres unmarked) | 0.851%
21 | COc1ccc(-c2cc(C(F)(F)F)nc(S(C)(=O)=O)n2)cc1OC | 7.27%
22 | COCCNC(=O)Cn1ccc2cc(S(=O)(=O)N3CCCCC3)ccc21 | -4.37%
23 | O=C(NCc1ccco1)C(=O)NCc1ccccc1Cl | 3.36%
24 | CNC(=O)c1cc(C(=O)c2ccccc2C(F)(F)F)c[nH]1 | 6.24%
25 | CCCCCCc1nc(C(N)=O)c2[nH]c(=O)n(-c3ccc(OC)cc3OC)c2n1 | 12.4%
26 | CCC(CC)C(=O)Nc1cc(C(=O)OC)cc(C(=O)OC)c1 | -16.7%
27 | COc1ccc(-c2cc(C(=O)N(C)Cc3ccccc3F)c3ccccc3n2)cc1OC | -10.6%
28 | Cn1c(=O)n(C)c2cc(NC(=O)COc3ccccc3)ccc21 | 1.63%
29 | COc1cc(CNn2c(C)n[nH]c2=S)cc(Cl)c1OCc1ccc(F)cc1 | 14.4%
30 | O=C(O)CC(CC(=O)Nc1ccc(C(=O)O)cc1)c1ccccc1 (centres unmarked) | 12.9%
31 | COc1ccccc1N1CCN(S(=O)(=O)CCNC(=O)c2cc(OC)c(OC)c(OC)c2)CC1 | 19%
32 | Cc1nn(-c2ccccc2)c(C)c1/C=N/NC(=O)CSc1nnc(SCc2ccccc2Cl)s1 | -14.5%
33 | Cc1cc(C)c2c(-n3cccc3)c(C(=O)O)sc2n1 | 13.3%
34 | CN(CC(=O)Nc1ccccc1Br)C(=O)COc1cccc2c1OC(C)(C)C2 | -2.3%
35 | O=C(CCC(=O)Nc1cc(C(F)(F)F)ccc1Cl)N/N=C\c1cc([N+](=O)[O-])ccc1O | -3.26%
36 | Nc1c(C(=O)OCC(=O)Nc2ccc(OC(F)F)cc2)[nH]c(=O)[nH]c1=O | 4.54%
37 | CC1CN(C(=O)COc2coc(CN3CCc4ccccc4C3)cc2=O)CC(C)O1 (centres unmarked) | 2.75%
38 | COc1ccc(C2=NS(=O)(=O)N(C)C(C(=O)N3CCC(C(N)=O)CC3)=C2)cc1 | -12.2%

Row | SMILES | hERG current change (%, negative = inhibition) at 10uM
39 | COc1ccc(OCC(O)Cn2c(N3CCCCC3)nc3c2c(=O)n(C)c(=O)n3C)cc1 (centres unmarked) | -4.8%
40 | NC(=S)Nc1ccc(C(F)(F)F)cc1Cl | 0.127%
41 | CCC(C(=O)NCc1ccco1)n1nc(-c2ccc(OC)cc2)ccc1=O (centres unmarked) | -17.4%
42 | CN(C)CCOC1c2ccccc2C=Cc2ccccc21.O=C(O)/C=C\C(=O)O | -2.75%
43 | COc1ccc([N+](=O)[O-])cc1C(=O)NCCOc1ccc(Cl)cc1 | 6.08%
44 | O=C(NCC(c1ccco1)N1CCN(c2ccccc2)CC1)C(=O)NC1CCCC1 (centres unmarked) | 1.33%
45 | Cc1cc(C)cc(N(C(=O)Cc2cccs2)C(C(=O)NC2CCCCC2)c2ccccn2)c1 (centres unmarked) | -24%
46 | COc1cc(C(=O)NCCN=C2NS(=O)(=O)c3ccccc32)cc(OC)c1OC | 11.7%
47 | Cc1ccc2ccc3ccc(C)nc3c2n1 | 17.6%
48 | COC(CNC(=O)c1cn(C)c2ccc(S(=O)(=O)N3CCOCC3)cc2c1=O)OC | 16.1%
49 | CCCC(C(=O)NC1CCCC1)N(CC1CCCO1)C(=O)CNS(=O)(=O)c1ccc(F)cc1 (centres unmarked) | -8.24%
50 | COc1ccc(-c2cnn3cc(-c4cccc(Cl)c4)cnc23)cc1 | 15.6%
51 | CNCc1c(OCc2ccc(F)cc2)ccc2ccccc12.Cl | -49.1%
52 | COc1ccc(CN(C)CC(=O)Nc2ccccc2C(=O)NC2CC2)cc1OC | -21.7%
53 | CCOc1ccc(N/C(N)=N/c2nc(C)c(C)c(=O)[nH]2)cc1 | 8.5%
54 | O=C(c1ccc(F)cc1)c1ccc(CN2C(=O)c3ccccc3C2=O)o1 | -28.9%
55 | COc1ccc(-c2nc3ccccc3c(=O)o2)cc1OC | 22.3%
56 | Cc1cccc(OCC(=O)N2CCC3(CC2)CC(=O)c2ccccc2O3)c1 | -54.7%
